From the supplement of paper PMC3334620
The full ranking holds about 33,000 sequences; the median of “E-score (-0.5 to 0.5)” is about -0.035, and the highest 2% start at about 0.35. This is one part of the list.

Each sequence was assayed against T1, Pdr3 (UniProt P33200) (assay: PBM E-score (8-mer binding enrichment) (E-score (-0.5 to 0.5)); higher = stronger / more preferred TF binding; most listed sequences are background and not binding sites). Details: protein concentration: 200 nM; construct: GST-full length.
T1 sequence: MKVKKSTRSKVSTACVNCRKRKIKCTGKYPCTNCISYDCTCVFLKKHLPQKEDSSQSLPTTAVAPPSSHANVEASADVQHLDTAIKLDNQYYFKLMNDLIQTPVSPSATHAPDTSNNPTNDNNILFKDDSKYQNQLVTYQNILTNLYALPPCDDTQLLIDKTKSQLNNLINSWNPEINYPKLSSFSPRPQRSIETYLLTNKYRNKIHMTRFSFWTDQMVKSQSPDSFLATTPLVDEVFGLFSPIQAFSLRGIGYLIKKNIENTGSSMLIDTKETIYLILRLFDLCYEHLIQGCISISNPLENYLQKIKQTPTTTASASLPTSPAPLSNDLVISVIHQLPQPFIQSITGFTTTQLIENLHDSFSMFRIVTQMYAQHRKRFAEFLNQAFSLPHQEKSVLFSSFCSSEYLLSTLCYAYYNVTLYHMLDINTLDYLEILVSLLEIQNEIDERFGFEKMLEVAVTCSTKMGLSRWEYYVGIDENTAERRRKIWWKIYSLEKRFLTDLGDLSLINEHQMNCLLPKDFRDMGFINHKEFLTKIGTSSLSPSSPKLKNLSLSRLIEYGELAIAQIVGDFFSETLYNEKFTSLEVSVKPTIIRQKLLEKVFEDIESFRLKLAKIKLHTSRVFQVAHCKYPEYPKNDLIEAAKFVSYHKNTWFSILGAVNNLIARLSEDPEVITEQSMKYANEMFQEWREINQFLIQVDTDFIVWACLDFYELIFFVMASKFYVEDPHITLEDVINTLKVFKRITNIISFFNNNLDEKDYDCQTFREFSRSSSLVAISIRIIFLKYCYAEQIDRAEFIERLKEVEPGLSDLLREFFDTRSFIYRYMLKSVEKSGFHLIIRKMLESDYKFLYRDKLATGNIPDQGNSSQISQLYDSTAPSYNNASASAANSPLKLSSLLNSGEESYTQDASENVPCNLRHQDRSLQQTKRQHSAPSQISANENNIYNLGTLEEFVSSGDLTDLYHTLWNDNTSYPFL
Method in brief: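 Full-length yeast transcription factors or their DNA-binding domains, GST-tagged and expressed with PURExpress, were applied at about 100-200 nM to universal all-10-mer Agilent arrays. These arrays had been made double-stranded by primer extension on fresh or once-stripped slides. Detection used fluorescent anti-GST, normalisation used masliner, and E-scores for ungapped eight-base words pooled with reverse complements came from the Universal PBM Analysis Suite.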

| Sequence | PBM E-score |
| --- | --- |
| TGCCTACA | -0.0198 |
| AGAATGCA | 0.141 |
| CGGCATGC | 0.351 |
| GTTAGCTA | -0.0596 |
| CCGGAATA | 0.437 |
| GTTAAGCA | -0.0593 |
| GCAGACAC | 0.0135 |
| ATCAAATG | -0.0599 |
| CCCCTTGA | -0.0434 |
| TAGGTTCA | 0.0752 |
| AGCTAGAT | -0.0783 |
| ATAGGAGA | -0.363 |
| GGCCGTAA | 0.144 |
| ACTAATCG | 0.278 |
| GAGCACGA | 0.0924 |
| CGCGCTAG | 0.0743 |
| GATGATCA | -0.144 |
| GCCATACA | -0.0619 |
| ATCCACAC | -0.072 |
| TACTTCCA | 0.109 |
| AAGTGTCG | -0.0239 |
| CGTCGGTC | 0.157 |

| Sequence | PBM E-score |
| --- | --- |
| GGTCCCAA | -0.0945 |
| CGACTGGA | -0.0565 |
| CCCCCAGC | -0.28 |
| CATACCGA | -0.0073 |
| AGACCTGC | -0.278 |
| AACCGAAA | -0.0221 |
| AAGACTTA | -0.385 |
| AGTCTGCC | -0.279 |
| GGGCTGTA | -0.156 |
| TACCGGTA | 0.103 |
| AGACGATA | -0.0346 |
| AATGCGGA | 0.311 |
| CTGAGTCA | -0.057 |
| AACCAAGT | 0.00666 |
| ATGTGACC | -0.0228 |
| ATGAGAGA | -0.11 |
| AAGCAGGA | 0.0545 |
| CCATATGG | 0.132 |
| GGCCTTAA | -0.0743 |
| TCTGCCAA | -0.313 |
| TTCTGCAA | 0.0593 |
| ATATGCTC | 0.0848 |

| Sequence | PBM E-score |
| --- | --- |
| ATACGCAT | -0.00294 |
| CACGGCGG | 0.178 |
| CTATACGA | -0.0979 |
| ACCTATCA | -0.061 |
| ACCTAGTA | -0.175 |
| AAGATAAG | -0.106 |
| AATCATCT | -0.101 |
| CCTGGTCA | -0.169 |
| AGATCGTG | -0.174 |
| AAGGCCCA | -0.228 |
| CACGCATG | -0.14 |
| CTGAAGAC | -0.113 |
| CCGAGTAA | 0.157 |
| GGTCACAC | -0.36 |
| ACGACTTA | -0.287 |
| GACTGCAC | -0.179 |
| CCAGACAA | -0.125 |
| TACTACGA | -0.0479 |
| TAACCCGA | 0.0621 |
| TCCTCTAA | -0.193 |
| TAGGGTGA | 0.00768 |
| CTACCCTA | -0.147 |

| Sequence | PBM E-score |
| --- | --- |
| ACAAATAC | 0.0413 |
| ATCGGGAC | 0.163 |
| CGTCTCCA | 0.0712 |
| AAGGGATC | 0.0636 |
| CGGAGATA | 0.386 |
| AGGAGCTA | -0.374 |
| AGTCCAGA | -0.144 |
| ATCCCGTA | 0.242 |
| CAGCACCG | 0.0881 |
| CATGTGTA | -0.0603 |
| AGGCCAAG | -0.156 |
| AGGAGCAC | -0.0134 |
| AACAGGGA | 0.00934 |
| CGAATGCA | -0.00384 |
| CAGAGTGC | -0.125 |
| AGCCTCTA | -0.333 |
| CCCACCCC | 0.198 |
| ACATCTTG | -0.126 |
| AGATATTC | -0.0705 |
| AATAAACG | -0.0217 |
| GGCTCGTA | -0.035 |
| GTTTACAA | -0.0369 |

| Sequence | PBM E-score |
| --- | --- |
| CTCATTAC | -0.0319 |
| TCCGCCAA | 0.264 |
| GGCATGCA | -0.0346 |
| ACTTGCTG | -0.278 |
| ACGGCCTC | 0.0451 |
| AACCCTAC | -0.229 |
| ATTATACG | 0.202 |
| ATGGACCC | -0.0167 |
| GCGCGGCC | 0.219 |
| ACGCCCTG | 0.0456 |
| CATGCGCA | 0.0514 |
| AATGGGCT | -0.161 |
| TGGGGTAA | 0.0964 |
| CCGACGCA | 0.0126 |
| AACCGGAA | 0.435 |
| ACCCAATA | -0.026 |
| AGCGCTGC | -0.157 |
| CAACACAA | -0.13 |
| ATAACATG | 0.00778 |
| GATAATAC | 0.0742 |
| ATACATAT | 0.226 |
